The text below walks through data of a collection of fitness landscapes (doi:10.1126/science.1257360).

First the molecules themselves.
B1: PhoQ; a variant is named by its letters at X, in order, P23837 (parent)
chain: MKKLLRLFFPLSLRVRFLLATAAVVLVLSLAYGMVALIGYSVSFDKTTFRLLRGESNLFYTLAKWENNKLHVELPENIDKQSPTMTLIYDENGQLLWAQRDVPWLMKMIQPDWLKSNGFHEIEADVNDTSLLLSGDHSIQQQLQEVREDDDDAEMTHSVAVNVYPATSRMPKLTIVVVDTIPVELKSSYMVWSWFIYVLSANLLLVIPLLWVAAWWSLRPIEALAKEVRELEEHNRELLNPATTRELTSLVRNLNRLLKSERERYDKYRTTLTDLTHSLKTPLXXLQXXLRSLRSEKMSVSDAEPVMLEQISRISQQIGYYLHRASMRGGTLLSRELHPVAPLLDNLTSALNKVYQRKGVNISLDISPEISFVGEQNDFVEVMGNVLDNACKYCLEFVEISARQTDEHLYIVVEDDGPGIPLSKREVIFDRGQRVDTLRPGQGVGLAVAREITEQYEGKIVAGESMLGGARMEVIFGRQHSAPKDE

This is one part of the list.

The variants in this assay derive from B1. Put plainly: enrichment ratio after two sorts for PhoP signalling (ratio (wild type AVST 3.29)); higher = more functional. The settings on record: with PhoP (E. coli).
As to KQSE, the enrichment ratio was ≤ 0.25.
As to HQDI, the enrichment ratio is ≤ 0.25.
QFQH: the enrichment ratio was ≤ 0.25.
On to PVSS, for which the enrichment ratio was ≤ 0.25.
On to MPGI, for which the enrichment ratio was determined as 1.54.
For the variant FVRA, the enrichment ratio was ≤ 0.25.
Regarding IRYL, the enrichment ratio was ≤ 0.25.
For the variant FQME, the enrichment ratio was ≤ 0.25.
On to MQLF, for which the enrichment ratio turned out to be 2.66.
Regarding PNCL, the enrichment ratio was ≤ 0.25.
In the case of MEFP, the enrichment ratio is ≤ 0.25.
For the variant VHEM, the enrichment ratio was ≤ 0.25.
The same measure for PVMM: ≤ 0.25; for NYNW: ≤ 0.25.
In the case of EMSS, the enrichment ratio is ≤ 0.25.
On to YKAF, for which the enrichment ratio was ≤ 0.25.
As for GYDD, the enrichment ratio was ≤ 0.25.
The same measure for IDCD: ≤ 0.25; for EYID: ≤ 0.25; for EHGN: 4.25.
The same measure for ERYV: ≤ 0.25; for VGWW: ≤ 0.25.
Regarding SQVW, the enrichment ratio is ≤ 0.25.
The same measure for TKWP: ≤ 0.25; for LEPT: ≤ 0.25; for ENIL: ≤ 0.25.
The same measure for TTLP: ≤ 0.25; for EQRN: ≤ 0.25; for WSEH: ≤ 0.25.
Turning to HKGA, the enrichment ratio was ≤ 0.25.
With YDPM, the enrichment ratio is ≤ 0.25.
With AMHK, the enrichment ratio was ≤ 0.25.
As for VVAP, the figure is ≤ 0.25; as for NDKM, ≤ 0.25; as for YNMY, ≤ 0.25.
For FLCF, the enrichment ratio was ≤ 0.25.
As for CSYS, the enrichment ratio was ≤ 0.25.
PPAH: the enrichment ratio is ≤ 0.25.
For QNSA, the enrichment ratio was ≤ 0.25.
IQND: the enrichment ratio is ≤ 0.25.
SVRP: the enrichment ratio is ≤ 0.25.
Turning to GDKK, the enrichment ratio is ≤ 0.25.
As to NERR, the enrichment ratio is ≤ 0.25.
For the variant VNYS, the enrichment ratio is ≤ 0.25.
For the variant MVEK, the enrichment ratio was ≤ 0.25.
As for FVAQ, the enrichment ratio is ≤ 0.25.
With LFIN, the enrichment ratio was ≤ 0.25.
On to YVYK, for which the enrichment ratio is ≤ 0.25.
DMMF: the enrichment ratio was ≤ 0.25.
With KFLD, the enrichment ratio is ≤ 0.25.
TMIS: the enrichment ratio was ≤ 0.25.
With RPMA, the enrichment ratio was ≤ 0.25.
For the variant FINL, the enrichment ratio is ≤ 0.25.
For the variant AMTL, the enrichment ratio was 4.39.
As for FCNK, the enrichment ratio is ≤ 0.25.
YYML: the enrichment ratio was ≤ 0.25.
As for YPLK, the figure is ≤ 0.25; as for SSGD, ≤ 0.25; as for HSEI, ≤ 0.25.
Turning to MPDN, the enrichment ratio was ≤ 0.25.
For FMHE, the enrichment ratio was ≤ 0.25.
As to LIAK, the enrichment ratio is ≤ 0.25.
As for KALH, the figure is ≤ 0.25; as for LEIA, ≤ 0.25.
For HATI, the enrichment ratio was ≤ 0.25.
As to PMDK, the enrichment ratio is ≤ 0.25.
With KPPQ, the enrichment ratio was ≤ 0.25.
Regarding SWDD, the enrichment ratio is ≤ 0.25.
With PTEI, the enrichment ratio was ≤ 0.25.
As for SMRM, the enrichment ratio was ≤ 0.25.
In the case of TMCQ, the enrichment ratio turned out to be 3.61.
As for KSHD, the figure is ≤ 0.25; as for MMPQ, ≤ 0.25.
On to PGEP, for which the enrichment ratio is ≤ 0.25.
As to RCPA, the enrichment ratio is ≤ 0.25.
Take PLGP: the enrichment ratio was ≤ 0.25.
For FLCK, the enrichment ratio is ≤ 0.25.
As for WPSG, the enrichment ratio is ≤ 0.25.
YYKA: the enrichment ratio is ≤ 0.25.
As for KFLK, the figure is ≤ 0.25; as for HAFY, ≤ 0.25; as for NILP, ≤ 0.25.
Take TRLE: the enrichment ratio was ≤ 0.25.
As for DQCG, the enrichment ratio was ≤ 0.25.
As to NSKD, the enrichment ratio was ≤ 0.25.
As for NFKW, the enrichment ratio was ≤ 0.25.
For ECNN, the enrichment ratio is ≤ 0.25.
Consider VLTV, for which the enrichment ratio was ≤ 0.25.
For the variant VMKN, the enrichment ratio was ≤ 0.25.
Take DAYM: the enrichment ratio was ≤ 0.25.
In the case of ANHN, the enrichment ratio is ≤ 0.25.
Regarding TGLC, the enrichment ratio stood at 10.
Consider MPKL, for which the enrichment ratio was ≤ 0.25.
With DIMV, the enrichment ratio is ≤ 0.25.
HCSA: the enrichment ratio was ≤ 0.25.
As for LSYI, the figure is 8.98.
With ATMF, the enrichment ratio stood at 16.
For the variant FVRE, the enrichment ratio is ≤ 0.25.
With IKWI, the enrichment ratio is ≤ 0.25.
SIKL: the enrichment ratio is ≤ 0.25.
For KVLL, the enrichment ratio was ≤ 0.25.
Regarding KCTL, the enrichment ratio is ≤ 0.25.
For the variant FKRT, the enrichment ratio is ≤ 0.25.
As for VERN, the enrichment ratio was ≤ 0.25.
Take VKPA: the enrichment ratio was ≤ 0.25.
Consider VFWS, for which the enrichment ratio was ≤ 0.25.
As for TAVT, the figure is ≤ 0.25; as for YPDS, ≤ 0.25.
As for YQNA, the enrichment ratio worked out at 14.6.
As for SLMQ, the enrichment ratio came to 11.8.
As to GFRN, the enrichment ratio was ≤ 0.25.
IKVA: the enrichment ratio was ≤ 0.25.
As for NTTP, the enrichment ratio is ≤ 0.25.
As for GLHY, the figure is ≤ 0.25; as for TESL, 12.5; as for AYFN, ≤ 0.25.
Regarding MSLL, the enrichment ratio is 13.3.
As to HAWV, the enrichment ratio is ≤ 0.25.
As to NYNG, the enrichment ratio is ≤ 0.25.
Take HDCC: the enrichment ratio is ≤ 0.25.
MINL: the enrichment ratio is ≤ 0.25.
VNTI: the enrichment ratio is ≤ 0.25.
KSHF: the enrichment ratio was ≤ 0.25.
Take SKGF: the enrichment ratio was ≤ 0.25.
The same measure for WGKR: ≤ 0.25; for DIFT: ≤ 0.25.
As to ERPY, the enrichment ratio was ≤ 0.25.
For the variant MIFH, the enrichment ratio amounted to 9.75.
Regarding TGPL, the enrichment ratio was ≤ 0.25.
Consider KEKA, for which the enrichment ratio was ≤ 0.25.
Take TECA: the enrichment ratio amounted to 0.528.
Take NSKH: the enrichment ratio was ≤ 0.25.
Take NGVS: the enrichment ratio was ≤ 0.25.
In the case of IICF, the enrichment ratio turned out to be 0.792.
Turning to QHPP, the enrichment ratio was ≤ 0.25.
In the case of PLHI, the enrichment ratio was ≤ 0.25.
For FTKE, the enrichment ratio is ≤ 0.25.
Turning to QDIP, the enrichment ratio came out at 0.586.
Take GGTE: the enrichment ratio is ≤ 0.25.
For DLFR, the enrichment ratio was ≤ 0.25.
As for RYIS, the enrichment ratio is ≤ 0.25.
For the variant RICC, the enrichment ratio was ≤ 0.25.
As for PSEE, the figure is ≤ 0.25.
EITS: the enrichment ratio is ≤ 0.25.
NAIP: the enrichment ratio is ≤ 0.25.
The same measure for WDDW: ≤ 0.25; for HSWY: ≤ 0.25; for CMWF: ≤ 0.25.
For the variant SYVE, the enrichment ratio is ≤ 0.25.
Take LFNE: the enrichment ratio was ≤ 0.25.
Regarding SKLS, the enrichment ratio is 9.06.
Consider FTPD, for which the enrichment ratio is ≤ 0.25.
For the variant TNCP, the enrichment ratio was ≤ 0.25.
